# In PubChem BioAssay AID1345082 (National Center for Advancing Translational Sciences (NCATS), 2018):
# Screen size: about 94,000 compounds; about 4,000 (4.3%) were called active. The inconclusive results got no clear call from the source; some entries with a clear call stand among them for comparison. Calls come from the whole dose curve; as a rule, active = well fitted inhibition curve with a large enough effect; inconclusive = small, poorly fitted or top-dose-only effect; inactive = no such curve, though single readings can be large or run the other way. Potencies beside an inconclusive call are fits to weak or partial responses and may not hold up.
# Assay: Cytotoxic Profiling in NIH 3T3 Cell Line of Diverse Libraries Using Quantitative High-Throughput Screening; note: nearly all actives have a fitted effect of over 55% in size
# Conditions: NIH 3T3 viability, CellTiter-Glo ATP luminescence, 48-72 h; series mostly up to 96.7 µM
# Method in brief: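 First NIH 3T3 cells are plated at 400 cells/well; next compound is pinned in; then plates incubate 48 or 72 hr at 37 °C; finally CellTiter-Glo is added and luminescence read after 10 min.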
# Potency is the fitted concentration of half-maximal effect; tags give direction and shape of the fitted curve.
row,SMILES,Potency
1,CNC(=O)c1cc(C2CC2)nc2onc(C3CCN(C(=O)c4ccccc4)C3)c12 (centres undefined),inactive
2,C[S+](=O)([O-])N1CCC(C(=O)N2CCC(N3CCCC3=O)CC2)CC1,inactive
3,COC(=O)N1CCc2nc(-c3ccc(OC)cc3)nc(-c3ccccc3)c2C1,"inconclusive: 50.1 µM [inhibitor, partial curve, poor fit]"
4,CC(=O)Nc1cccc(C(=O)N2CCC(c3n[nH]c(=O)n3-c3ccc(C)cc3)CC2)c1,inactive
5,O=C(Nc1nccs1)c1ccc2c(c1)OCCN(C1CCC1)C2,"inconclusive: 89.1 µM [inhibitor, partial curve, poor fit]"
6,COc1cccc(CN2CCCCCNC(=O)CC2c2ccccc2)c1 (centres undefined),"inconclusive: 44.7 µM [inhibitor, partial curve, poor fit]"
7,CC1(C(=O)N2CCN(c3ccccn3)CC2)CCc2cnc(NCc3ccccc3)nc21 (centres undefined),"inconclusive: 28.2 µM [inhibitor, partial curve, poor fit]"
8,Cc1nn(-c2ccccn2)c(C)c1[C@@H]1C=C[C@@H](NC(=O)CCC(=O)O)C1,inactive
9,Cn1cccc1CN1CCC(N2CC(OCC3CC3)C23CCCCC3)CC1 (centres undefined),"inconclusive: 39.8 µM [inhibitor, partial curve]"
10,COc1cc(NC(=O)c2cc3c(=O)[nH]c(C)cn3n2)cc(OC)c1OC,"inconclusive: 50.1 µM [inhibitor, partial curve, poor fit]"
11,O=C(c1ccsc1)N1CCc2c(nc3cc(-c4ccccc4Cl)[nH]n3c2=O)C1,active: 39.8 µM
12,CCOc1cccc(CNC(=O)C2CCCCC(=O)N2Cc2cccc(OC)c2)c1 (centres undefined),"inconclusive: 31.6 µM [inhibitor, partial curve, poor fit]"
13,COc1cccc(C(=O)N2CCN(c3ccc4nnc(-c5ccccc5)n4n3)CC2)c1,"inconclusive: 50.1 µM [inhibitor, partial curve, poor fit]"
14,CC(C)c1ccc(S(=O)(=O)N2CCCC2c2nncn2C2CCCC2)cc1 (centres undefined),inactive
15,Cc1ccc(C(=O)N[C@H]2C[C@@H](c3nc(-c4ccc(C)cc4)no3)N(C)C2)cc1,inactive
16,COCCNc1ncc(-c2cccc(N[S+](C)(=O)[O-])c2)c2c1OCC2,"inconclusive: 56.2 µM [inhibitor, partial curve, poor fit]"
17,COc1cc(NC(=O)Cn2c(-c3ccc(F)cc3)nc(C)c(CCO)c2=O)cc(OC)c1OC,inactive
18,CC[C@H]1CN(C(=O)Nc2cccc(C(F)(F)F)c2)CC[C@H]1CC(=O)NCc1ccc(F)cc1,"inconclusive: 56.2 µM [inhibitor, partial curve, poor fit]"
19,CC1CCc2nn3ccn(CC(=O)Nc4cccc(Cl)c4)c(=O)c3c2C1 (centres undefined),"inconclusive: 70.8 µM [inhibitor, partial curve, poor fit]"
20,CCOC(=O)[C@H]1C[C@]2(CCCCN(CCOC)C2=O)N(C(=O)C2CC2)[C@H]1c1ccccc1,"inconclusive: 44.7 µM [inhibitor, partial curve, poor fit]"
21,COc1ccc(C2Cn3cnc(C(=O)N4CCC(C(=O)NCc5ccccn5)CC4)c3CO2)cc1 (centres undefined),inactive
22,CCOc1ccccc1CN1CCn2c(nnc2[C@@H]2C[C@@H](O)CN2C)C1,inactive

row,SMILES,Potency
1,CC(C)C[C@@H]1N[C@H](C(=O)NCc2ccncc2)Cc2cn(Cc3ccncc3)c3cccc1c23,"inconclusive: 31.6 µM [inhibitor, partial curve, poor fit]"
2,O=C(NCc1ccc(Cl)cc1)c1ccc2nnc(C3CC3)n2c1,"inconclusive: 63.1 µM [inhibitor, partial curve, poor fit]"
3,Cc1ccc(C)c([S+](=O)([O-])c2nnn3c2nc(NCc2ccncc2)c2ccccc23)c1,"inconclusive: 25.1 µM [inhibitor, partial curve, poor fit]"
4,COc1ccc(CN2C(=O)CO[C@H](c3ccc(NC(=O)c4cccs4)cc3)[C@H]2CO)cc1,"inconclusive: 39.8 µM [inhibitor, partial curve, poor fit]"
5,C=CCOc1c(OC)ccc2c1CN(Cc1ccco1)C(=O)CCN2CC(O)COc1ccc(OC)cc1 (centres undefined),"inconclusive: 56.2 µM [inhibitor, partial curve, poor fit]"
6,CCOC(=O)C1CCN(C(=O)C2COC3(CCCC(C)C3)N2C(=O)c2ccccc2F)CC1 (centres undefined),inactive
7,O=C(Cc1ccccn1)N1CCc2nc(-c3ccc(Cl)cc3)nc(-c3ccccc3)c2C1,"inconclusive: 70.8 µM [inhibitor, single point]"
8,C#CCN(C)C(=O)[C@@H](C)C1CC[C@@]2(C)Cc3sc(NCCCC)nc3[C@@H](C)[C@@H]2[C@H]1O (some centres undefined),"inconclusive: 79.4 µM [inhibitor, partial curve]"
9,O=C(NC1CCCCCC1)c1cn2cc(-c3cccnc3)sc2n1,"inconclusive: 50.1 µM [inhibitor, partial curve, poor fit]"
10,CN(C)C(=O)CN1C(=O)CO[C@H](c2ccc(NS(=O)(=O)c3cccc(F)c3)cc2)[C@H]1CO,"inconclusive: 70.8 µM [inhibitor, single point]"
11,c1cc(-c2nnc3n2CCN(Cc2ccsc2)C3)ccn1,inactive
12,Cc1cc(C)cc(-c2ccc(CN3CCCC3C(=O)N3CCN(C)CC3)cc2)c1 (centres undefined),"inconclusive: 50.1 µM [inhibitor, partial curve, poor fit]"
13,CC(C)(C)CC(=O)Nc1cnc(-c2ccc(Cl)cc2)nc1,active: 39.8 µM
14,CCOc1cc(=O)n2c(c1C(=O)Nc1cc(C)ccc1OC)CCCC2,"inconclusive: 31.6 µM [inhibitor, full curve]"
15,Cc1nn2c(c1-c1cccnc1N1CCOCC1)N(C(=O)c1cc3ccccc3n1C)CCC2,"inconclusive: 44.7 µM [inhibitor, partial curve, poor fit]"
16,CC(C)NC(=O)c1cc(-c2ccccc2C(F)(F)F)nc2c1cnn2C,"inconclusive: 50.1 µM [inhibitor, partial curve, poor fit]"
17,O=C(c1ccc(F)c(F)c1)N1CCCC(n2cc(-c3nc(C4CC4)no3)nn2)C1 (centres undefined),"inconclusive: 50.1 µM [inhibitor, partial curve, poor fit]"
18,CN(CCCN1c2ccccc2CCc2ccccc21)C(=O)C1CNCCO1 (centres undefined),"inconclusive: 79.4 µM [inhibitor, partial curve, poor fit]"
19,CCCCNC(=O)c1ccc2c(c1)N(S(=O)(=O)c1ccccc1F)CC2,"inconclusive: 50.1 µM [inhibitor, partial curve, poor fit]"
20,COCC1CN(C(=O)CCc2c(C)nn(C)c2C)CC12CCNCC2 (centres undefined),inactive
21,O=C(NCCN1CCOCC1)c1cn2cc(-c3ccccc3)sc2n1,inactive
22,Cc1ccccc1N1CCN(C2CCCN(C(=O)c3ccc(-c4ccco4)cc3)C2)CC1 (centres undefined),inactive

row,SMILES,Potency
1,CN(C)C(=O)c1ccnc(-c2nnc3ccc(NCCc4ccccc4)nn23)c1,inactive
2,COc1cccc(-c2cc(C3CCN(C(=O)Nc4ccccc4C(F)(F)F)CC3)[nH]n2)c1,active: 31.6 µM
3,Cc1ccc(NC(=O)Cn2c(-c3ccc(F)cc3)nc(C)c(CCO)c2=O)c(C)c1,inactive
4,Cc1nc(N2CCN(C(=O)c3ccccc3)CC2)cc(C(F)(F)F)n1,inactive
5,O=C(N[C@@H]1CN(Cc2ccc(Cl)c(F)c2)C[C@H]1CO)C1CCC1,inactive
6,O=[S+]([O-])(NC1CN(c2ccnc3ccnn23)C1)c1ccccc1,"inconclusive: 56.2 µM [inhibitor, partial curve, poor fit]"
7,CC(C)(C)c1nnc2ccc(C(=O)NCc3ccc(F)c(F)c3)cn12,"inconclusive: 50.1 µM [inhibitor, partial curve, poor fit]"
8,COCCNC(=O)Cc1c[nH]c2ncc(-c3ccccc3C)cc12,"inconclusive: 39.8 µM [inhibitor, partial curve, poor fit]"
9,COc1ccc(Cl)cc1C(=O)NCc1nnc2ccc(-c3ccc(C)c(C)c3)nn12,"inconclusive: 63.1 µM [inhibitor, partial curve, poor fit]"
10,O=C(Cc1c[nH]c2ncc(-c3ccccc3)cc12)NCc1ccncc1,active: 28.2 µM
11,CC(C)(C)CC(=O)N1CCC(O)(c2csc(CN3CCc4ccccc4C3)n2)CC1,"inconclusive: 63.1 µM [inhibitor, full curve, poor fit]"
12,COc1ccc(-c2nn(-c3ccccc3)cc2CN2CCN(C)C(C)C2)c(F)c1 (centres undefined),"inconclusive: 50.1 µM [inhibitor, partial curve, poor fit]"
13,CN1CCC(NC(=O)C2(C)CCCc3cnc(NCc4ccccc4)nc32)CC1 (centres undefined),inactive
14,CN(C)CCNC(=O)c1ccc2c(c1)C1(CCN(CC3CC3)C1)CN2Cc1ccccc1 (centres undefined),active: 31.6 µM
15,O=C(c1nc2cccnc2n(C2CC2)c1=O)N1CCCC1,inactive
16,COc1cccc(-c2noc(Nc3cc(C)cc(C)c3)n2)c1OC,"inconclusive: 70.8 µM [inhibitor, single point]"
17,CC1=NS(=O)(=O)N(Cc2ccccc2F)C=C1C(=O)O,inactive
18,O=C(Nc1ccc(Cl)cc1Cl)c1cc2cccnn2n1,"inconclusive: 39.8 µM [inhibitor, partial curve, poor fit]"
19,O=C(NC1CCCCC1)N[C@H]1[C@H](O)[C@@H](N2CCC(Cc3ccccc3)CC2)[C@@H]2OC[C@H]1O2,"inconclusive: 89.1 µM [inhibitor, partial curve, poor fit]"
20,O=C(O)c1ccc(CN2C[C@@H]3OCC(=O)N(CC4CC4)[C@@H]3C2)cc1,inactive
